Source: patent US20040121406A1

Molecular target: A2a adenosine receptor (Homo sapiens, UniProt P29274)
Assay: biochemical

IC50: 9.77 nM
Structure (SMILES): Nc1nc(Nc2ccccc2)nc2c1ncn2[C@@H]1O[C@H](CO)[C@@H](O)[C@H]1O [CV 1808, 2-phenylaminoadenosine]
